{"source": "PubChem BioAssay AID624330", "about": "(Southern Research Specialized Biocontainment Screening …, 2012)", "note": "Out of some 340,000 compounds screened, about 2,100 (0.62%) were called active.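 The calls were made as follows: active = first-screen hits whose inhibition reached a set limit at any dose in the follow-up dose series; inconclusive = inhibition above the set first-screen limit but never retested; inactive = the rest.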 Inconclusive results, whose numbers are uncertain, are shown.", "data": [{"target": "Rac GTPase-activating protein 1 (Homo sapiens) (UniProt Q9H0H5)", "sequence (Q9H0H5 whole entry, looked up)": "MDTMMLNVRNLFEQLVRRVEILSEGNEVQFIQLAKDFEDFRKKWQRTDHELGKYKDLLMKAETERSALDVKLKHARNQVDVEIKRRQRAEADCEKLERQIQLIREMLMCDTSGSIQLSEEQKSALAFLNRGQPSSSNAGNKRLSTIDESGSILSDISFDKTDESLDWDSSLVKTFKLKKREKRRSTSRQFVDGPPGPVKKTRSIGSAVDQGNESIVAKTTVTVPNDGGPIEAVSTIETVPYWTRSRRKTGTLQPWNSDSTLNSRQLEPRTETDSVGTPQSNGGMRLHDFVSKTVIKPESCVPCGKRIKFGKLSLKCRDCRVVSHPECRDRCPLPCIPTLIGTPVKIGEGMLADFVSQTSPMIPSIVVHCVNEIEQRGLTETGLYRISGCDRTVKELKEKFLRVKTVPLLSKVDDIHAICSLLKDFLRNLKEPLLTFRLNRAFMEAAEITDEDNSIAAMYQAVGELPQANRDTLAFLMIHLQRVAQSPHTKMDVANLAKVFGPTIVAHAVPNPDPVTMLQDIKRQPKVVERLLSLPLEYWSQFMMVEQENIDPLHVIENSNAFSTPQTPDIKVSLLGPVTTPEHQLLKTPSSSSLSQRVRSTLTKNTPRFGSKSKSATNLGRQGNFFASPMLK", "experiment": "blockers of MgcRacGAP-driven Rac1 GTP hydrolysis – biochemical, ADP Hunter fluorescence, primary and confirmatory, confirmation (AID 624330);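 also: fluorescence reports GDP produced by GAP-driven GTP hydrolysis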", "settings": "MgcRacGAP-stimulated Rac1 GTP hydrolysis, at 30 µM, stronger effect = higher value, GST-tagged Rac1 F28L mutant substrate", "values": [{"molecule": "O=C(NN1C(=O)/C(=C/c2ccc(O)cc2)SC1=S)c1ccccc1O", "inhibition": "inconclusive: 32.6%"}]}]}
